# Values quoted from earlier work in paper PMC11006913.
# This is one part of the list.
# Biological target: HOXD13 Q325R (Homo sapiens) (UniProt P35453)
# Conditions: PBM; conditions not shown; double strand, one strand shown; scale: upbm affinity estimate (log intensity, higher = more binding, comparable within an allelic series)
# Sequence of UniProt P35453 (P35453 263-343 Q325R): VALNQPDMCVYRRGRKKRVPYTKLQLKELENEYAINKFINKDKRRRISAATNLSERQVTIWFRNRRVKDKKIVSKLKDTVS
row,Sequence,binding signal
1,GTCTAAAC [8-mer GTCTAAAC],11.9
2,CCGTACTA [8-mer CCGTACTA],11.5
3,GCGTACTA [8-mer GCGTACTA],11.6
4,AAGTACAA [8-mer AAGTACAA],11.8
5,CGTCTAAA [8-mer CGTCTAAA],12.1
6,CATACAAA [8-mer CATACAAA],12
7,AGTATTAA [8-mer AGTATTAA],12.1
8,ATAAAATC [8-mer ATAAAATC],12
9,TGATAAAA [8-mer TGATAAAA],12.1
10,ATTTGTAC [8-mer ATTTGTAC],12.6
